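Cells were grown in 96-well plates and exposed to each compound for 48 hours at five concentrations; endpoints were interpolated linearly between bracketing concentrations, or set to the highest concentration if not reached. Abbreviation: GI50, concentration required for 50% inhibition of growth. TGI denotes the concentration required for complete inhibition of growth.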
Test system: NCI-H322M lung
Assay: NCI tumour cell line growth inhibition, 48 h

SMILES	GI50 [µM]	TGI [µM]
COC1[C@@H]2C[C@H]3C(C)(C)O[C@@](C/C=C(/C)C(=O)O)(C2=O)[C@]32Oc3c(CC=C(C)C)c4c(c(O)c3C(=O)[C@H]12)C=CC(C)(C)O4 (stereo partly drawn)	16.4	31.6
Cc1ccc2c(c1)Oc1nc(N)c(C#N)c(N)c1C2Sc1ccc(F)cc1 (stereo not drawn)	1.51	2.84
CCCn1cnc2c(c1=N)C(c1ccc(OC)cc1)c1sc3c(C)cccc3c1O2 (stereo not drawn)	0.805	36.4
Nc1nc(-c2cccc([N+](=O)[O-])c2)c(N=Nc2ccc([N+](=O)[O-])cc2Cl)s1	0.335	9.59
